# Measured values taken from PubChem BioAssay AID624173 (National Center for Advancing Translational Sciences (NCATS), 2012).
# About 490 (0.12%) of roughly 410,000 compounds were called active. The inconclusive results got no clear call from the source; some entries with a clear call stand among them for comparison. The call rests on the fitted dose curve; in most records, active means well fitted inhibition curve with a large enough effect; inconclusive means small, poorly fitted or top-dose-only effect; inactive means flat fitted curve, though single readings scatter. Where the call is inconclusive, the potency comes from a doubtful curve fit.
# Molecular target: pyruvate kinase (Trypanosoma brucei) (UniProt Q57TT1)
# Assay: qHTS of Trypanosoma Brucei Inhibitors; further: nearly all actives have a fitted effect of over 50% in size
# Details: TbPYK enzyme, Kinase-Glo Plus ATP luminescence, 45 min; series mostly up to 76.8 µM
# Outline: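 ADP (130 uM final) triggers the TbPYK reaction after compound addition; incubation is 45 min at room temperature. Kinase-Glo Plus is then added and luminescence imaged. Normalized data are fitted to concentration-effect curves.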
# Potency means the concentration at half of the fitted maximal effect; tags describe the fitted curve by direction and shape.
row,SMILES,Potency
1,CCN1CCN(c2cc(-c3ccc(F)cc3)c3c(n2)CCCCCC3)CC1,inactive
2,CC1(C)CC(N2CCN(C(c3ccccc3)c3ccccc3)CC2)=CC(=[N+]2CCCCC2)C1,"inconclusive: 35.5 µM [inhibitor, single point]"
3,O=C1c2cccc3cccc(c23)C(=O)C1(O)O,active: 7.08 µM
4,O=C(NCc1ccco1)c1c2c(nc3ccccc13)CCC2,"inconclusive: 50.1 µM [inhibitor, single point]"
5,Cc1ccc(N2Cc3ccccc3C2=O)cc1,"inconclusive: 25.1 µM [inhibitor, partial curve, poor fit]"
6,Cn1cnnc1SCc1ccc(C(=O)O)cc1,inactive
7,COc1ccc(C)cc1S(=O)(=O)N(C)CC(=O)NC1CC1,"inconclusive: 50.1 µM [inhibitor, single point]"
8,CC1CCN(c2ccc(C(=O)O)cc2N)CC1,inactive
9,COc1cc(CNn2cn[nH]c2=S)ccc1OCC(=O)NC(C)(C)C,"inconclusive: 31.6 µM [inhibitor, partial curve, poor fit]"
10,O=C(CN1C(=O)C2C3C=CC(C3)C2C1=O)NCCc1ccccc1 (stereo not drawn),"inconclusive: 50.1 µM [inhibitor, single point]"
11,CCC[n+]1c(C)sc2c3c(ccc21)CCCC3,"inconclusive: 44.7 µM [inhibitor, partial curve, poor fit]"
12,CC(C(=O)Nc1ccc(O)cc1C(=O)O)N1C(=O)/C(=C\c2cccs2)SC1=S (stereo not drawn),"inconclusive: 15.8 µM [inhibitor, partial curve]"
13,COC(=O)c1ccc2nc(-c3ccco3)c(Cc3cccc(F)c3)n2c1,"inconclusive: 28.2 µM [inhibitor, partial curve]"
14,CCn1c2c(c(=O)n3ncc(C(=O)Nc4ccc(F)cc4Cl)c13)CN(Cc1ccc(OC)cc1)CC2,"inconclusive: 35.5 µM [inhibitor, partial curve]"
15,CC(C)CC(=O)Nc1ccc2nn(-c3ccccc3)nc2c1,inactive
16,Cc1cccn2c(=S)[nH]nc12,"inconclusive: 28.2 µM [inhibitor, single point]"
17,CCn1c2c(c(=O)n3ncc(C(=O)Nc4ccc(OC(F)(F)F)cc4)c13)CN(Cc1ccc(OC)cc1)CC2,"inconclusive: 39.8 µM [inhibitor, single point]"
18,COc1ccc(/C=C/C(=O)NC2=NCCS2)cc1OC,inactive
19,O=C(COc1ccc([N+](=O)[O-])cc1)NNC(=S)NC(=O)c1ccc(Br)cc1,"inconclusive: 11.2 µM [inhibitor, partial curve, poor fit]"
20,CN1CCN(S(=O)(=O)c2ccc(NC(=O)Nc3cccc(Cl)c3)cc2)CC1,"inconclusive: 35.5 µM [inhibitor, single point]"
21,COc1ccc(-c2cc(C3CCN(c4ccc(C(C)=O)cc4[N+](=O)[O-])CC3)[nH]n2)cc1,"inconclusive: 31.6 µM [inhibitor, partial curve, poor fit]"
22,COc1ccc(C)cc1NS(=O)(=O)c1ccc(-c2cnc(C3CC3)o2)cc1,inactive

row,SMILES,Potency
1,Cc1cc(NS(=O)(=O)c2ccc(NC(=O)COc3ccc(Br)cc3)cc2)nc(C)n1,"inconclusive: 31.6 µM [inhibitor, single point]"
2,CCc1ccc(S(=O)(=O)/N=C2/C=C(Sc3ncn[nH]3)C(=O)c3ccccc32)cc1,"inconclusive: 25.1 µM [inhibitor, partial curve, poor fit]"
3,COc1cc2[nH]c(=O)c(C(=O)NCc3ccc(C)cc3)c(O)c2cc1OC,inactive
4,CCn1c(Cc2c(C)[nH]c3ccccc23)n[nH]c1=S,"inconclusive: 12.6 µM [inhibitor, partial curve]"
5,CC1CCN(c2ccc(-c3cccc(NS(=O)(=O)c4cccs4)c3)nn2)CC1,inactive
6,Cc1ccc(CN2C(=O)C(=O)c3cc(Br)cc(C)c32)cc1,inactive
7,COc1ccc(-n2c(-c3ccco3)n[nH]c2=S)cc1,"inconclusive: 2.24 µM [inhibitor, full curve, poor fit]"
8,COC(=O)c1ccc(NC(=O)c2c(Br)cnn2C)cc1,"inconclusive: 39.8 µM [inhibitor, partial curve, poor fit]"
9,Cc1ccc(C(O)c2ncc(-c3cccc(F)c3)[nH]2)cc1 (stereo not drawn),inactive
10,COc1ccccc1-n1c(CNC(=O)c2cccs2)n[nH]c1=S,"inconclusive: 14.1 µM [inhibitor, partial curve, poor fit]"
11,Cc1ccc(S(=O)(=O)NCCSc2nnnn2-c2ccc(C(N)=O)cc2)cc1,inactive
12,O=C(CCCc1ccccc1)Nc1ccccc1[N+](=O)[O-],"inconclusive: 50.1 µM [inhibitor, single point]"
13,O=C(Nc1ccc(F)cc1F)c1cc(-c2ccco2)nc2ccccc12,"inconclusive: 35.5 µM [inhibitor, partial curve, poor fit]"
14,CN(C)CCCNC(=O)C[C@H]1C[C@H](C(=O)N2CCOCC2)[C@@]2(CCC3CCCC3)c3[nH]c4cc(-c5ccco5)ccc4c3CCN2C1=O,inactive
15,C=CCn1c(-c2csc3ccccc23)n[nH]c1=S,"inconclusive: 7.94 µM [inhibitor, partial curve, poor fit]"
16,S=c1[nH]nc(-c2cc(-c3ccco3)[nH]n2)n1-c1ccccc1Cl,"inconclusive: 6.31 µM [inhibitor, partial curve, poor fit]"
17,CCN(CC)S(=O)(=O)c1cc(C(=O)OCC(=O)c2ccc3c(c2)NC(=O)CO3)ccc1F,inactive
18,CC(C)(c1cc(Br)c(O)c(Br)c1)c1cc(Br)c(O)c(Br)c1,"inconclusive: 39.8 µM [inhibitor, partial curve, poor fit]"
19,O=C1CCN(C(=O)Cc2ccccc2)c2ccccc21,inactive
20,CN1CCN(C2=C(Cl)C(=O)C(c3cnc(N4CCCCC4)s3)=C(Cl)C2=O)CC1,active: 1 µM
21,COc1ccc([C@H]2N[C@]3(CCCN(Cc4cccn4C)C3=O)[C@H]3C(=O)N(C)C(=O)[C@@H]23)cc1,"inconclusive: 7.08 µM [inhibitor, partial curve]"
